Some of the results follow.

To fix the notation:
T1: UNK ZnF1-3 (human, UniProt Q9C0B0 31-174)
T1 sequence: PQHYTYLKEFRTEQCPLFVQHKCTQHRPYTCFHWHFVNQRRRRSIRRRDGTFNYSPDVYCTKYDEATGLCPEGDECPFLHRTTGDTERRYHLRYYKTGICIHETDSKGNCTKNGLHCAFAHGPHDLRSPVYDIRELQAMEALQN

B1: chr19:16212804:16212805:+_ENSG00000167460_ENST00000300933|hu_mus|hu_hu_hu_mus_False|1_58 (ssRNA)
RNA: GGGAGUUCUACAGUCCGACGAUCAACAAUUCUGGAGUGAAGGAAAGAUGUAACAUGGAACAGCAUUAAAGCUCAGUAUUACUAUAUAUGGGCAACAAUGAUCACCCCAGCAUUCUCGCUUGGAAUGCUUAAAGACAGAUGUUUCAACAGAGGAUUGAGCAUCA
B2: chr14:89307221:89307222:+_ENSG00000165533_ENST00000346301|hu_mus|hu_hu_hu_mus_False|58_88 (ssRNA)
RNA: GGGAGUUCUACAGUCCGACGAUCUCCUGUUUGGUUAGUGCCAGGGAGUUUCAAAGAUGUGCCAGGGCGUGGGACCUGAGCUAUAGCAUUUUCAUCCAGGAUCAUUUCAGCAAUUCCUUCCUGGUCCACAUCAAUUUCAUCUAUCAACAGAGGAUUGAGCAUCA
B3: chr6:38652254:38652255:-_ENSG00000124767_ENST00000373365|hu_hu|hu_hu_hu_mus_False|68_78 (ssRNA)
RNA: GGGAGUUCUACAGUCCGACGAUCCGAGAACUUCAUAGCAGGGAAGUCAAGCUUCUGGAUUAGCGUCAUUCCAAGAACCCUCGUAUAAAAAUCCAGGGACUUCUUAGGAUCCUUAAUUCUUAGCAUCGUUUGCUGCAGUAGAAACAACAGAGGAUUGAGCAUCA
B4: chr12:85022504:85022505:+_ENSMUSG00000010608_ENSMUST00000048155|mus_mus|motif|central (ssRNA)
RNA: GGGAGUUCUACAGUCCGACGAUCCACAAGGCCAAUUUUCUUGGCUUCUGUUUCAUAUAUCAAUAAUCUCCACAUUUUGACGGUAAAAACUUCUGCUUCUUCAUCUAGUACCAUGGCAACAUCAUCUAAAAUGCUCUGUGGUGACAACAGAGGAUUGAGCAUCA
B5: chr14:103931940:103931941:+_ENSG00000075413_ENST00000216288|hu_hu|motif|central (ssRNA)
RNA: GGGAGUUCUACAGUCCGACGAUCACAAAACGUGUCGAGUUUACCGCCAACAGUAAAUUCAUUGCUAAAACCGAAAUCUGCGGUUUUAAUGUUCAUAUCGGCAUCUAACAAUAGAUUUUCAGCCUUGAGGUCUCGAUGUACGAUCAACAGAGGAUUGAGCAUCA
B6: chrX:140365796:140365797:-_ENSMUSG00000031285_ENSMUST00000033642|mus_mus|mus_mus_mus_hu_False|8_98 (ssRNA)
RNA: GGGAGUUCUACAGUCCGACGAUCCUUCUCAUUACUCAAUGCCUGCAAGGUUCUGGUUCGGUAGAAGCUACAGUGGGCGCUGUGAGUGGGGCUAGGCAACCCAUUCAUCCGGGAGCCUCGCAUGUUCCUAGAUGCUUUAUCUCUCAACAGAGGAUUGAGCAUCA

The assay has as its target T1, UNK ZnF1-3. Description: nsRBNS (natural sequence RNA bind-n-seq); RBNS binding buffer (assumed for nsRBNS): 25 mM Tris pH 7.5, 150 mM KCl, 3 mM MgCl2, 0.01% Triton X-100, 500 ug/ml BSA, 20 U/ml SUPERase-In, 4 C; UNK is unkempt and MSI1 is Musashi-1; names of the RNAs are library labels; protein concentration not given here; high values mean tight binding.
In turn, B1 had a binding signal of 1.33 enrichment R.
In turn, B2 gave a binding signal of 0.879 enrichment R.
As to B3, the binding signal was 1.28 enrichment R.
Molecule B4 showed a binding signal of 0.989 enrichment R.
The result for B5 reads 0.583 enrichment R.
With B6 the figure was 0.752 enrichment R.

The record behind these values is article PMC12136788.
